In PubChem BioAssay AID504832 (National Center for Advancing Translational Sciences (NCATS), 2011):
Out of some 310,000 compounds screened, about 18,000 (5.8%) were called active. Inconclusive means that the source gave no clear call. Such entries were picked first, then a sample of the others. Calls follow the shape of the dose curve; as a rule, active = well fitted inhibition curve with a large enough effect; inconclusive = small, poorly fitted or top-dose-only effect, or another doubt; inactive = no such curve, though single readings can be large or run the other way. Potencies of inconclusive entries are left out as doubtful fits.

Assay: Primary qHTS for delayed death inhibitors of the malarial parasite plastid, 48 hour incubation
Details: P. falciparum luciferase growth in erythrocytes; series mostly up to 28.7 µM
Method in brief: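 Read-out is firefly luciferase luminescence from an integrated reporter in P. falciparum, so falling signal marks reduced parasite growth. Infected erythrocytes were at 2% hematocrit and 0.1% parasitemia (final) in Albumax-supplemented RPMI 1640.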
Potency is read from the fitted curve at half-maximal effect; tags tell the direction and shape of the fitted curve.

Structure (SMILES)	Potency
Cc1ccc(NC(=O)C2OCCc3ccccc32)cc1Cl (stereo unspecified)	inactive
CCOC(=O)/C(C#N)=c1/s/c(=C2\C=Cc3ccccc3N2CC)c(=O)n1CC	inactive
COc1ccc2c(c1)OC1=C(C(=O)CCC1)C2C1=C(O)CCCC1=O (stereo unspecified)	inactive
C/C(=N\NC(=S)Nc1ccccc1)C1Cc2ccccc2C(=O)O1 (stereo unspecified)	active: 10.4 µM
CS(=O)(=O)c1cccc(NC(=O)CSc2nnc3n2CCCCC3)c1	inactive
O=C(N/N=C/c1cc([N+](=O)[O-])ccc1O)Nc1ccccc1	inconclusive [inhibitor, single point]
c1ccc(CSc2ccc3nnc(-c4ccccn4)n3n2)cc1	inconclusive [inhibitor, full curve]
COc1ccc(S(=O)(=O)N(C)c2ccc(C(=O)NCc3ccco3)cc2)cc1OC	inactive
CCOC(=O)c1nnn(-c2nonc2-n2cccc2)c1-c1cccc([N+](=O)[O-])c1	inconclusive [inhibitor, single point]
O=C(COc1ccccc1Cc1ccccc1)Nc1cccc(S(=O)(=O)N2CCOCC2)c1	active: 13.1 µM
CC1(c2ccc3c(c2)OCCO3)NC(=O)N(CC(=O)c2ccc[nH]2)C1=O (stereo unspecified)	inconclusive [inhibitor, single point]
CCCCc1cc(=O)oc2cc(OCc3nn[nH]n3)ccc12	inconclusive [inhibitor, full curve, poor fit]
CS(=O)(=O)c1ccc(Cl)c(NC(=O)C2CCCN(C(=O)c3ccc(Cl)cc3)C2)c1 (stereo unspecified)	inconclusive [inhibitor, single point]
COc1ccc(CCNC(=O)Cc2cccc(C(F)(F)F)c2)cc1OC	inconclusive [inhibitor, partial curve, poor fit]
O=S(=O)([N-]c1nc2ccccc2nc1-[n+]1ccc(-c2ccncc2)cc1)c1ccccc1	inconclusive [inhibitor, single point]
CCCCc1ccc(NC(=S)N2CCN(C(=O)OCC)CC2)cc1	inconclusive [inhibitor, full curve, poor fit]
COc1ccccc1N(C)S(=O)(=O)c1ccc(Cl)c(C(=O)OCc2c(C)noc2C)c1	inconclusive [inhibitor, partial curve, poor fit]
C=CCN(CC=C)C(=O)c1cccc(S(=O)(=O)N2c3ccccc3CC2C)c1 (stereo unspecified)	active: 2.33 µM
Cc1ccc(C(=O)NC(=S)NNS(=O)(=O)c2ccc(C)cc2)cc1	inactive
CCOC(=O)NC(Nc1sc2c(c1C(=O)OC)CCN(C)C2)(C(F)(F)F)C(F)(F)F	inconclusive [inhibitor, single point]
CC(C)CC(c1nnnn1C1CCCC1)N1CCN(c2ccccc2F)CC1 (stereo unspecified)	inactive
CCn1c2ccccc2c2cc(NC(=O)C(=O)NCC3CCCO3)ccc21 (stereo unspecified)	inconclusive [inhibitor, single point]
CCNC(=S)/N=C(\N)Nc1nc(C)c2cc(C)ccc2n1	inconclusive [inhibitor, partial curve, poor fit]

Structure (SMILES)	Potency
C[C@@]12C(=O)OC(=O)[C@]1(C)[C@H]1CC[C@@H]2O1	active: 2.03 µM
Cc1cccc(-n2c(O)c(C=Nc3c(C)n(C)n(-c4ccccc4)c3=O)c3ccccc3c2=O)n1	inconclusive [inhibitor, partial curve, poor fit]
O=C(c1cccc(Oc2ccc([N+](=O)[O-])cc2Cl)c1)N1CCOCC1	inactive
CC(C)Nc1nnc(SCC(=O)Nc2ccc(F)cc2)s1	inconclusive [inhibitor, partial curve, poor fit]
Nc1cccc2c1C(=O)N(C(=O)c1ccco1)C2=O	inactive
O=C(O)CCC/C=C\C[C@@H]1[C@@H](/C=C/[C@@H](O)COc2cccc(C(F)(F)F)c2)[C@H](O)C[C@@H]1O	inactive
COc1ccc(Cl)cc1NC(=O)C1CSC(c2ccncc2)=N1 (stereo unspecified)	inconclusive [inhibitor, single point]
CN(C)S(=O)(=O)c1cccc(NC(=S)N/N=C/C(c2ccccc2)c2ccccc2)c1	inactive
Cc1ccc(Nc2nc(N)[nH]c(=O)c2N=O)cc1	inconclusive [inhibitor, single point]
COc1ccc(-n2c(N3CCN(C)CC3)nc3sc4c(c3c2=O)CCCCC4)cc1	inactive
O=C1CN(c2nc(-c3cccnc3)nc3scc(-c4ccccc4)c23)CCN1	inconclusive [inhibitor, partial curve, poor fit]
Cc1ccc(C)c(Cn2c(C(=O)OC(C)C)cc3c2ccn3C)c1	inconclusive [inhibitor, partial curve, poor fit]
CN(C(=O)COC(=O)C12CC3CC(CC(C3)C1)C2)c1c(N)n(Cc2ccccc2)c(=O)[nH]c1=O	inactive
Cc1c(N=Cc2ccc(Cl)o2)c(=O)n(-c2ccccc2)n1C	inactive
CC(C)=C1C2C=CC1C1C(=O)N(c3ccc4c(c3)OCO4)C(=O)C21 (stereo unspecified)	inactive
CCOC(=O)c1ccc(NC(=O)N2CCc3ccccc3C2)cc1	inconclusive [inhibitor, partial curve]
COc1ccc(-c2nc(CS(=O)CC(=O)N3CCOCC3)c(C)o2)cc1OC (stereo unspecified)	inactive
COc1cc2c(-c3ccc4[nH]ccc4c3)c(-c3ccc(C#N)cc3)oc(=O)c2cc1OC	inconclusive [inhibitor, full curve]
Cc1cc(C)c(S(=O)(=O)C(C)C)c(=O)[nH]1	inconclusive [inhibitor, partial curve, poor fit]
COC(C#CCCN(C)C)(c1ccccc1)c1ccccc1	active: 1.65 µM
O=C(COc1ccccc1)N=C1SC2CS(=O)(=O)CC2N1c1ccc(F)cc1F (stereo unspecified)	inactive
CCOc1ccccc1N(C)C(=O)CCS(=O)(=O)c1ccc2c(c1)NC(=O)CO2	inactive
O=C(Nc1ccc(F)cc1)Nc1cc(OCC(F)(F)F)cc(OCC(F)(F)F)c1	inconclusive [inhibitor, full curve, poor fit]
